Source: PMC4336329 (PLoS ONE, 2015)
About 2,200 (0.71%) of roughly 310,000 compounds showed an effect of 50% or more. Effects have a minus sign here. This is one part of the list.

The compounds below were run against human ether-à-go-go-related gene (hERG) potassium channel (human, UniProt Q12809) (assay: primary screen, population patch clamp on CHO cells stably expressing hERG).
Sequence of human ether-à-go-go-related gene (hERG) potassium channel (Q12809 whole entry, looked up): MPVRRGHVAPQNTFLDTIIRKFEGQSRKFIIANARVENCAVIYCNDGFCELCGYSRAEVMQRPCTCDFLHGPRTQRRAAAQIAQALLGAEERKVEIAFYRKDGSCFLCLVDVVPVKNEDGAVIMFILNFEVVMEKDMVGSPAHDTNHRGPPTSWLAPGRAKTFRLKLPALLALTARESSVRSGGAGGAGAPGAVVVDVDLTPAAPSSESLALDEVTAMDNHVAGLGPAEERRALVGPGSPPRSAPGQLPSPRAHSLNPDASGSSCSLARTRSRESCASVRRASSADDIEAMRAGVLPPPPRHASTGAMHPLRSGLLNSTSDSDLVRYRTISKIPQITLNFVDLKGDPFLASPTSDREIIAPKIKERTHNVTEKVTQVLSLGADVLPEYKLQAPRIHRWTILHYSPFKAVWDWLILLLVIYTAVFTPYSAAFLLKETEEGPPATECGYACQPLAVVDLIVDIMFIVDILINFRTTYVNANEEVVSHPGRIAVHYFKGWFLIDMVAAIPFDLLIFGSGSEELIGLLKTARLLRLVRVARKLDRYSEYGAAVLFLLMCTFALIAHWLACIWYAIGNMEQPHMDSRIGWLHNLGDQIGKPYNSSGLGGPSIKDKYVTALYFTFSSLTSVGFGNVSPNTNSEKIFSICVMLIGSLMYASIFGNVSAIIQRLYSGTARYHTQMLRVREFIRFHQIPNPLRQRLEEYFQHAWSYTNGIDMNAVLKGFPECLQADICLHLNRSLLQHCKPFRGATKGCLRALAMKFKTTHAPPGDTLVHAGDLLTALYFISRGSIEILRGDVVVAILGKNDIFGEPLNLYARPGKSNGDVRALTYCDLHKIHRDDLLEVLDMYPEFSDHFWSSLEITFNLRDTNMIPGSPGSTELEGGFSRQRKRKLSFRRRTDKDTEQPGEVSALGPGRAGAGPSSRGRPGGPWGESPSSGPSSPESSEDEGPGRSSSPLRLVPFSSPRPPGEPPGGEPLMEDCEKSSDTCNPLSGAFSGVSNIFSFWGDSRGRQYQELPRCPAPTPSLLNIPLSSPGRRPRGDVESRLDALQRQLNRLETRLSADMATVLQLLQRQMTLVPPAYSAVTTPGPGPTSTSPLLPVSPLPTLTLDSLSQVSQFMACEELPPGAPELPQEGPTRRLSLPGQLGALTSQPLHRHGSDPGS
With `CC(C)(C)N1[C@@H](CC(=O)O)c2cc(C(F)(F)F)ccc2S1(=O)=O` the “hERG current change (%, negative = inhibition) at 1uM” value was 12%.
With `C=CCNC(C(=O)Nc1cccc(OC)c1)c1ccccc1` (stereo not shown) the “hERG current change (%, negative = inhibition) at 1uM” value was 13.3%.
`N#C/C(=C\C=C\c1ccccc1)C(=O)N1CCCC1` was tested, and the “hERG current change (%, negative = inhibition) at 1uM” value was 12.3%.
`N#Cc1ccccc1NC(=O)c1ccc2c(c1)OCO2` was tested, and the “hERG current change (%, negative = inhibition) at 1uM” value was -1.24%.
`CCCCn1c(-c2c(Cl)c(C)nn2C)n[nH]c1=S` was tested, and the “hERG current change (%, negative = inhibition) at 1uM” value was 3.51%.
For `O=C(O)CCCn1cc(NC(=O)COc2ccc([N+](=O)[O-])cc2)cn1`, the “hERG current change (%, negative = inhibition) at 1uM” value was 10.1%.
For `CCC(=O)N1CCN(c2ccccc2NC(=O)COc2ccccc2Cl)CC1`, the “hERG current change (%, negative = inhibition) at 1uM” value was 4.56%.
For `CC1CCCN(CCOCCOc2ccccc2-c2ccccc2)C1.O=C(O)C(=O)O` (stereo not shown), the “hERG current change (%, negative = inhibition) at 1uM” value was -42.6%.
In the case of `N=c1c2c3c(sc2ncn1CCCN1CCOCC1)CCCCC3`, the “hERG current change (%, negative = inhibition) at 1uM” value is reported as -19.8%.
For `Cc1ccc(/C=C/c2ccc(=O)n(Cc3ccc(Cl)cc3Cl)n2)cc1`, the “hERG current change (%, negative = inhibition) at 1uM” value was 4.3%.
For `Cc1nn(C)c(C)c1S(=O)(=O)N(CC(=O)N1CCc2ccccc2C1)c1ccc(C(C)C)cc1`, the “hERG current change (%, negative = inhibition) at 1uM” value was 7.85%.
`Cc1ccc(C(=O)O/N=C2\CCSc3ccc(C)cc32)cc1` was tested, and the “hERG current change (%, negative = inhibition) at 1uM” value was -3.19%.
In the case of `N#CC(C(=O)CCN1C(=O)C2CC=CCC2C1=O)c1nc2ccccc2[nH]1` (stereo not shown), the “hERG current change (%, negative = inhibition) at 1uM” value is reported as 15.8%.
`Cc1nn(-c2ccccc2)c(C)c1-c1nnc(-c2c(C)nn(-c3ccccc3)c2C)o1` was tested, and the “hERG current change (%, negative = inhibition) at 1uM” value was 11.9%.
In the case of `CNS(=O)(=O)c1cnccc1N1CCN(c2cccc(Cl)c2)CC1`, the “hERG current change (%, negative = inhibition) at 1uM” value is reported as 8.1%.
With `CSc1ccccc1NC(=O)c1ccc(N2CCCC2=O)cc1` the “hERG current change (%, negative = inhibition) at 1uM” value was -0.834%.
For `CN1C(=O)Cc2cc(S(=O)(=O)N3CCN(c4cccc(C(F)(F)F)c4)CC3)ccc21`, the “hERG current change (%, negative = inhibition) at 1uM” value was 16.2%.
For `Cn1c(NC(=O)CCC2CCCCC2)cc(=O)n(C)c1=O`, the “hERG current change (%, negative = inhibition) at 1uM” value was 16.7%.
`CC(CN1CCCC1)OC(=O)c1cccc(F)c1.Cl` (stereo not shown) was tested, and the “hERG current change (%, negative = inhibition) at 1uM” value was 13.2%.
In the case of `CCN(CC)c1ccc(/C=C(\C#N)c2ccccn2)cc1`, the “hERG current change (%, negative = inhibition) at 1uM” value is reported as 3.45%.
For `CC1SCC(=NOCc2c(Cl)cccc2Cl)CS1` (stereo not shown), the “hERG current change (%, negative = inhibition) at 1uM” value was 17.2%.
In the case of `COc1ccc([N+](=O)[O-])cc1NC(=O)c1ccccc1SC`, the “hERG current change (%, negative = inhibition) at 1uM” value is reported as -6.85%.
With `COc1ccc(N(CC(=O)NCc2ccccc2C)S(=O)(=O)c2ccccc2[N+](=O)[O-])c(OC)c1` the “hERG current change (%, negative = inhibition) at 1uM” value was 8.12%.
With `CN1CCN(c2nc3ccccn3c(=O)c2/C=C(\C#N)S(=O)(=O)c2ccccc2)CC1` the “hERG current change (%, negative = inhibition) at 1uM” value was 1.05%.
With `COc1cccc(NC(=O)C2CC(=O)N(Cc3ccco3)C2)c1` (stereo not shown) the “hERG current change (%, negative = inhibition) at 1uM” value was 4.31%.
For `Cc1nc2ccccc2c(=O)n1/N=C/c1ccc(N(C)C)cc1`, the “hERG current change (%, negative = inhibition) at 1uM” value was 10.3%.
With `CC1=C[C@H](C)[C@H](c2c(F)cccc2Cl)CC1=O` the “hERG current change (%, negative = inhibition) at 1uM” value was 8.46%.
With `COc1ccc(C(=O)Nn2c(C)ccc2C)cc1OC` the “hERG current change (%, negative = inhibition) at 1uM” value was -10.7%.
In the case of `O=C(Nc1ccc2nc3n(c(=O)c2c1)CCCC3)c1cncc(Br)c1`, the “hERG current change (%, negative = inhibition) at 1uM” value is reported as -3.39%.
With `COc1cc2c(cc1NC(C)=O)CCCC2` the “hERG current change (%, negative = inhibition) at 1uM” value was 12.1%.
For `Cc1cc2nc(-c3ccc(SCC(=O)Nc4ccc(S(=O)(=O)NC5CC5)cc4)nc3)[nH]c2cc1C`, the “hERG current change (%, negative = inhibition) at 1uM” value was 10.4%.
For `COc1ccc(C(=O)NCCc2nnc(SCC(=O)Nc3ccccc3F)n2C)cc1`, the “hERG current change (%, negative = inhibition) at 1uM” value was 7.12%.
`Nc1nc(F)cc(NCc2ccccc2)n1` was tested, and the “hERG current change (%, negative = inhibition) at 1uM” value was 7.98%.
For `O=C(CN(Cc1ccc(Cl)cc1)C(=O)c1csnn1)NCc1ccccc1`, the “hERG current change (%, negative = inhibition) at 1uM” value was -27.4%.
With `CCN1CCN(C(=O)C2(NC(=O)Nc3cccc(F)c3)CCCCC2)CC1` the “hERG current change (%, negative = inhibition) at 1uM” value was 4.91%.
With `COc1coc(C(O)C[N+](=O)[O-])cc1=O` (stereo not shown) the “hERG current change (%, negative = inhibition) at 1uM” value was 1.07%.
With `NC(=O)c1nsc(C(=O)N(c2ccc(F)cc2)C(C(=O)NCC2CCCO2)c2c[nH]c3ccccc23)c1N` (stereo not shown) the “hERG current change (%, negative = inhibition) at 1uM” value was 9%.
In the case of `O=C(Oc1ccc2cccc(OC(=O)N3CCOCC3)c2c1)N1CCOCC1`, the “hERG current change (%, negative = inhibition) at 1uM” value is reported as 15.7%.
With `CCN(CC)CCCNC(=O)c1cc(-c2ccc3c(c2)OCO3)on1` the “hERG current change (%, negative = inhibition) at 1uM” value was 5.38%.
`O=C(CSc1ccc(Br)cc1)NCC1CCCO1` (stereo not shown) was tested, and the “hERG current change (%, negative = inhibition) at 1uM” value was 11.9%.
For `Cc1cc(-c2nnc(CCC(=O)N(C)CCc3ccccc3)o2)no1`, the “hERG current change (%, negative = inhibition) at 1uM” value was 10.8%.
`COc1cccc(CN2C(=O)CCC2(C)C(=O)NC2CCCCCC2)c1` (stereo not shown) was tested, and the “hERG current change (%, negative = inhibition) at 1uM” value was 3.35%.
With `Cc1ccccc1C(=O)NC1CC2CCC(C1)N2Cc1ccccc1` (stereo not shown) the “hERG current change (%, negative = inhibition) at 1uM” value was 7.57%.
With `O=C(CN1CCN(Cc2ccccc2)CC1)Nc1nnc(C(F)(F)F)s1` the “hERG current change (%, negative = inhibition) at 1uM” value was 17.7%.
In the case of `CC(NC(=O)Nc1ccc([N+](=O)[O-])cc1)C(c1ccccc1)N1CCOCC1` (stereo not shown), the “hERG current change (%, negative = inhibition) at 1uM” value is reported as 12.7%.
In the case of `O=C(Nc1cccnc1Cl)c1cc(-c2cccc(Cl)c2)on1`, the “hERG current change (%, negative = inhibition) at 1uM” value is reported as 8.28%.
For `CC(C)Cc1nnc(NC(=O)CCC(=O)N2CCN(c3ccccc3F)CC2)s1`, the “hERG current change (%, negative = inhibition) at 1uM” value was 17%.
For `CCn1c(CSc2nc3ccccc3s2)nnc1SCC(N)=O`, the “hERG current change (%, negative = inhibition) at 1uM” value was 3.1%.
`Cl.N=c1sccn1CC(=O)N1CCc2ccccc21` was tested, and the “hERG current change (%, negative = inhibition) at 1uM” value was 5.01%.
In the case of `O=C(CN1C(=O)NC(c2ccccc2)(c2ccccc2)C1=O)Nc1ccc2[nH]c(=O)[nH]c2c1`, the “hERG current change (%, negative = inhibition) at 1uM” value is reported as 10.6%.
In the case of `O=C(CCS(=O)(=O)c1cc2c(cc1Cl)NC(=O)CO2)NCCc1ccccc1`, the “hERG current change (%, negative = inhibition) at 1uM” value is reported as 13.2%.
For `COC(=O)c1cc(S(=O)(=O)NCc2cccc(OC)c2)cn1C`, the “hERG current change (%, negative = inhibition) at 1uM” value was -4.99%.
For `O=C(Cc1ccccc1)Nc1ccc(NC(=O)C2CC2)nc1`, the “hERG current change (%, negative = inhibition) at 1uM” value was 6.56%.
In the case of `O=C(Nc1cc(S(=O)(=O)N2CCOCC2)ccc1OCC(F)(F)F)c1ccc(N2CCCC2=O)cc1`, the “hERG current change (%, negative = inhibition) at 1uM” value is reported as 1.86%.
With `Cc1cccn2c(=O)c(C=O)c(Cl)nc12` the “hERG current change (%, negative = inhibition) at 1uM” value was 8.55%.
`CCN1CCN(CC(=O)Nc2nc3ccc(C)cc3s2)CC1` was tested, and the “hERG current change (%, negative = inhibition) at 1uM” value was 9.7%.
In the case of `O=C1OCCC1Sc1nc2ccccc2n1Cc1ccccc1` (stereo not shown), the “hERG current change (%, negative = inhibition) at 1uM” value is reported as -16.4%.
In the case of `CCOC(=O)C(NC(=O)c1cccc(Cl)c1)(Nc1sc2c(c1C(N)=O)CCC2)C(F)(F)F` (stereo not shown), the “hERG current change (%, negative = inhibition) at 1uM” value is reported as 4.69%.
